{
  "source": "PubChem BioAssay AID248",
  "about": "(DTP/NCI, 2004)",
  "tested_on": "L1210 leukemia ip in BDF1 mice, survival T/C",
  "assay": "NCI In Vivo Anticancer Drug Screen. Data for tumor model L1210 Leukemia (intraperitoneal) in B6D2F1 (BDF1) mice",
  "conditions": "higher = longer survival",
  "note": "Toxic doses and inconclusive results are not listed. Certain results were filed several times, with different values. The list is limited to them. The source may hold further records. Results that share an entry differ, and nothing given here explains why; they may come from other doses, times, organisms or constructs than stated.",
  "data": [
    {"smiles": "COc1ccc(Cl)cc1NC(=O)N(CCCl)N=O", "values": [
      {"measurement": "T/C", "setting": "endpoint: mean survival time, dose: 60.0 mg/kg/injection, schedule: Q01DX001 (ip), vehicle: carboxymethylcellulose (CMC)", "result": "103 % of control and 165 % of control"}
    ]},
    {"smiles": "N=c1ccn2c(n1)OC1C(O)C(CO)OC12", "note": "(configuration not stated)", "values": [
      {"measurement": "T/C", "setting": "endpoint: median survival time, dose: 200.0 mg/kg/injection, schedule: Q03HX024 (ip), vehicle: water", "result": "120 % of control and 600 % of control"}
    ]}
  ]
}
